This note sets out measurements from the supplement of paper PMC10126150.

The subject of the data set is ATP. The experiment in a line: switch fluorescence ratio, 500 uM ATP over buffer (Cy3 cluster intensity, sum of 5 cycles each) (fold (ratio)); higher = stronger signal-on switching upon ATP binding; sequences stand for … in TCGTCGGCAGCGTCAGATGTGTATAAGAGACAGTTTTTTTTTTTTTTTTTTTTTTTTT…TC. The conditions noted are these: aptamer strand: ATP DNA aptamer (quencher-CACCTGGGGGAGTATTGCGGAGGAAGG + anchor), 100 nM annealed; ATP concentration: 500 uM; one replicate. The method in brief: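 For every switch-domain sequence, the fluorescence ratio is the mean of per-cluster values, each being summed target-cycle Cy3 intensity over summed buffer-cycle Cy3 intensity. Clusters outside 100-1000 RFU were excluded. On a modified Illumina MiSeq flow-cell, the Cy3-labelled switching-strand clusters were annealed to 100 nM quencher-labelled ATP aptamer, imaged in selection buffer and then after 15 min with 500 uM ATP at 22 °C. Five such cycles were run, with NaOH stripping and re-annealing between them.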

Sequences with one replicate were seen in a single cluster, so their values are uncertain.
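Note: ATP exposure 15 min at 22 °C before imaging.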

In the case of GTAGACCCTT, the switch fluorescence ratio is 1.02.

As to ATTACTCATT, the switch fluorescence ratio is 1.01.

On to AAGCCCGCTA, for which the switch fluorescence ratio is 1.06.

For CGTTGAAGCG, the switch fluorescence ratio is 0.963.

On to TATAAAATTA, for which the switch fluorescence ratio worked out at 0.978.

AATGCGGCGC: the switch fluorescence ratio is 1.04.

For the sequence TTTTCCTGTG, the switch fluorescence ratio amounted to 1.01.

Take CCCTGGGTGT: the switch fluorescence ratio amounted to 3.91.

Consider GGATGGTCGA, for which the switch fluorescence ratio turned out to be 1.

With GTAAAAGGGA, the switch fluorescence ratio was 0.952.

Turning to GTGAGACCGC, the switch fluorescence ratio is 1.09.

As for TAGGGGTAAC, the switch fluorescence ratio came to 1.02.

In the case of TAGCGTATCC, the switch fluorescence ratio is 1.14.

For the sequence AGAGTAATTT, the switch fluorescence ratio was determined as 0.997.

For TAGTGCCCGC, the switch fluorescence ratio stood at 0.981.

Turning to TTGGACCTAG, the switch fluorescence ratio amounted to 1.

For the sequence GTTACAGGG, the switch fluorescence ratio is 0.967.

As for TACAAGGGGG, the switch fluorescence ratio turned out to be 1.04.

With GTACTTGGAG, the switch fluorescence ratio was found to be 1.02.

In the case of CCGAAGAAGG, the switch fluorescence ratio was 1.64.

On to ATCCGTTGCA, for which the switch fluorescence ratio is 1.12.

For GACGCTAGGC, the switch fluorescence ratio was found to be 2.88.

For the sequence TGGCGGTTGG, the switch fluorescence ratio came out at 1.01.

Regarding GAGACGTGAA, the switch fluorescence ratio came out at 1.

For TCTGGGCAGA, the switch fluorescence ratio was found to be 1.04.

On to ACACCTATAA, for which the switch fluorescence ratio worked out at 1.03.

ATATCGGACT: the switch fluorescence ratio amounted to 0.973.

Take TGCGACGTCG: the switch fluorescence ratio is 0.978.

As to TAAAGGTACG, the switch fluorescence ratio amounted to 0.948.

In the case of ATTTATCAGC, the switch fluorescence ratio is 1.1.

In the case of GAGGAAGCCC, the switch fluorescence ratio stood at 0.93.

On to GGATTATGCT, for which the switch fluorescence ratio was 1.03.

As to GCGGCAGAGC, the switch fluorescence ratio came to 0.971.

As for GTGTTGCATC, the switch fluorescence ratio was 1.02.

With CAATAAAGA, the switch fluorescence ratio was found to be 1.02.

Regarding TTACGTAAAC, the switch fluorescence ratio was determined as 1.56.

As for CGCCGAAACT, the switch fluorescence ratio worked out at 1.08.

Regarding GTTGCGTTGT, the switch fluorescence ratio came to 0.948.

With AATTCAGGG, the switch fluorescence ratio amounted to 0.995.

For GCGAGCCCCG, the switch fluorescence ratio is 1.02.

As to TGCGCCACCG, the switch fluorescence ratio was determined as 1.02.

Consider ACGGGAAATG, for which the switch fluorescence ratio amounted to 1.81.

In the case of TGGCAATGTT, the switch fluorescence ratio is 1.03.

Turning to AGGTTGGGGA, the switch fluorescence ratio is 1.01.

As for GTCGACGGCA, the switch fluorescence ratio was determined as 1.

For GCTGGGGCTG, the switch fluorescence ratio was 0.933.

As to CAGTTGATAA, the switch fluorescence ratio worked out at 0.965.

For TTTAGCTTGA, the switch fluorescence ratio was 1.01.

On to GCTCGACTCT, for which the switch fluorescence ratio amounted to 1.03.

In the case of CGTCGTTCGA, the switch fluorescence ratio came to 0.989.

In the case of TACCGGTTAC, the switch fluorescence ratio was found to be 1.21.

With CGAGGGGTCA, the switch fluorescence ratio worked out at 1.

Turning to GGGTATACAT, the switch fluorescence ratio was 1.05.

In the case of CTGGCGAAGC, the switch fluorescence ratio came out at 0.98.

For AACTTTCTG, the switch fluorescence ratio was 0.984.

For TATGAGTAGT, the switch fluorescence ratio is 1.02.

On to TCGTCCTTAA, for which the switch fluorescence ratio was determined as 1.1.

For GTTGGTCGGA, the switch fluorescence ratio came to 0.973.

In the case of CAACTGGTTA, the switch fluorescence ratio stood at 0.994.

For the sequence GGGTGAATAT, the switch fluorescence ratio came to 1.3.

Regarding TCAAGGGTAA, the switch fluorescence ratio came out at 1.04.

ATCAATTTGA: the switch fluorescence ratio is 0.993.

With TGCTGTGCTC, the switch fluorescence ratio came to 1.04.

In the case of TTGAGAGGAA, the switch fluorescence ratio came out at 1.05.

On to TCGAGAATTT, for which the switch fluorescence ratio was 0.993.

Take ACTTTTGTAC: the switch fluorescence ratio amounted to 1.04.

Consider TAGAATCA, for which the switch fluorescence ratio was 0.947.
